Experimental findings from paper PMC5892938 are described below.

This is one part of the list. At the low end of the ranking the order means little.

This assay has as its target GST-SBP-SLBP (stem-loop binding protein) (UniProt Q14493). Put plainly: targeted RNA Bind-n-Seq.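 Further: DESeq read counts versus GST-SBP nonspecific binding control pulldown.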 The conditions noted are these: RBNS binding buffer: 25 mM Tris pH 7.5, 150 mM KCl, 3 mM MgCl2, 0.1% Tween, 0.5 mg/mL BSA, 1 mM DTT; 27 nM protein, 750 pM RNA pool; temperature not stated; high values mean tight binding.
Take “GGUCACGUCUCAAUCAACUCUUUCCCCAGGGAAAUCCCUGGCUUAUUCAACAGCUCGCAGUCAAG”: the binding signal (log2 fold change) stood at 0.146.
On to “GGUCACGUCUCAAUCAACUCUUCUUCCAGGGAAAGCCCUGGCAAUCUCAACAGCUCGCAGUCAAG”, for which the binding signal (log2 fold change) was -0.0475.
Turning to “GGUCACGUCUCAAUCAACUCUUCCUCAGGAGUUUACUCCUGUAAUUUCAACAGCUCGCAGUCAAG”, the binding signal (log2 fold change) stood at 0.0518.
Regarding “GGUCACGUCUCAAUCAACUCAAUCCCAGGAGUUUCCUCCUGUAUUUUCAACAGCUCGCAGUCAAG”, the binding signal (log2 fold change) was found to be 0.216.
Next, “GGUCACGUCUCAAUCAACUCUUCCCCCAGGGAAAACCCUGGCAAACUCAACAGCUCGCAGUCAAG”: 0.0816; “GGUCACGUCUCAAUCAACUCAUCGCCAGGAGUUUCCUCCUGUAAUCUCAACAGCUCGCAGUCAAG”: 0.147; “GGUCACGUCUCAAUCAACUCCUUCGAGGGGGGGAAAACCCCUUUACCCUCAUCAUCAACAGCUCGCAGUCAAG”: -0.187.
Next, “GGUCACGUCUCAAUCAACUCUUUCCCCAGGGAAACCCCUGGCUUAUUCAACAGCUCGCAGUCAAG”: 0.242; “GGUCACGUCUCAAUCAACUCUAUUCCCAGGGAAACCCCUGGUAAAUUCAACAGCUCGCAGUCAAG”: 0.224.
In the case of “GGUCACGUCUCAAUCAACUCUUAAGAGGGGGGGAAAACCCCUUUGCCCUCCAACUCAACAGCUCGCAGUCAAG”, the binding signal (log2 fold change) amounted to 0.269.
In the case of “GGUCACGUCUCAAUCAACUCUUCCCCCAGGGAAAGCCCUGGCUAUCUCAACAGCUCGCAGUCAAG”, the binding signal (log2 fold change) stood at 0.115.
Regarding “GGUCACGUCUCAAUCAACUCUUUAGAGGGGGGGAAAACCCCUUUACCCUCAUCCUCAACAGCUCGCAGUCAAG”, the binding signal (log2 fold change) is 0.00761.
With “GGUCACGUCUCAAUCAACUCAACUUCAGGAGUUUACUCCUGUUAAUUCAACAGCUCGCAGUCAAG” the figure was 0.103; with “GGUCACGUCUCAAUCAACUCCAACGAGGGGGGGAAAACCCCUUUACCCUCACAUUCAACAGCUCGCAGUCAAG”, 0.014.
In the case of “GGUCACGUCUCAAUCAACUCUAUUUCAGGAGUUUUCUCCUGCUUUGUCAACAGCUCGCAGUCAAG”, the binding signal (log2 fold change) worked out at 0.00122.
Next, “GGUCACGUCUCAAUCAACUCAUUCCCCAGGGAAAGCCCUGGCUUUCUCAACAGCUCGCAGUCAAG”: -0.275.
Regarding “GGUCACGUCUCAAUCAACUCUCAAGAGGGGGGGAAAACCCCUUUUCCCUCAAAUUCAACAGCUCGCAGUCAAG”, the binding signal (log2 fold change) was -0.383.
Consider “GGUCACGUCUCAAUCAACUCUUCCCCCAGGGAAAUCCCUGGCAUAUUCAACAGCUCGCAGUCAAG”, for which the binding signal (log2 fold change) came to 0.0248.
Turning to “GGUCACGUCUCAAUCAACUCAUUCCCAGGAGUUUUCUCCUGUAUAUUCAACAGCUCGCAGUCAAG”, the binding signal (log2 fold change) is -0.0682.
With “GGUCACGUCUCAAUCAACUCAAUUCCAGGAGUUUCCUCCUGCAAACUCAACAGCUCGCAGUCAAG” the figure was 0.0917; with “GGUCACGUCUCAAUCAACUCUUUAGAGGGGGGGAAAACCCCUUUACCCUCAAUCUCAACAGCUCGCAGUCAAG”, -0.0216.
As for “GGUCACGUCUCAAUCAACUCUUCUUCAGGAGUUUCCUCCUGCAAAUUCAACAGCUCGCAGUCAAG”, the binding signal (log2 fold change) was determined as 0.0653.
Take “GGUCACGUCUCAAUCAACUCUACUUCAGGAGUUUCCUCCUGCAUUUUCAACAGCUCGCAGUCAAG”: the binding signal (log2 fold change) stood at 0.0226.
As for “GGUCACGUCUCAAUCAACUCUUCCUCAGGAGUUUACUCCUGUAAUGUCAACAGCUCGCAGUCAAG”, the binding signal (log2 fold change) was -0.0264.
Take “GGUCACGUCUCAAUCAACUCAGUCUCAGGAGUUUUCUCCUGCAUAUUCAACAGCUCGCAGUCAAG”: the binding signal (log2 fold change) worked out at 0.145.
Take “GGUCACGUCUCAAUCAACUCAUCCCCCAGGGAAAUCCCUGGUUUUUUCAACAGCUCGCAGUCAAG”: the binding signal (log2 fold change) is -0.139.
Turning to “GGUCACGUCUCAAUCAACUCAUUUCCCAGGGAAAUCCCUGGCAAUCUCAACAGCUCGCAGUCAAG”, the binding signal (log2 fold change) is 0.279.
With “GGUCACGUCUCAAUCAACUCUUUUUCCAGGGAAAUCCCUGGCAUGUUCAACAGCUCGCAGUCAAG” the figure was 0.035; with “GGUCACGUCUCAAUCAACUCUUUAGAGGGGGGGAAAACCCCUUUGCCCUCGAUAUCAACAGCUCGCAGUCAAG”, -0.184.
Regarding “GGUCACGUCUCAAUCAACUCAAUAGAGGGGGGGAAAACCCCUUUACCCUCACCUUCAACAGCUCGCAGUCAAG”, the binding signal (log2 fold change) was 0.223.
Next, “GGUCACGUCUCAAUCAACUCUUUUUCCAGGGAAAGCCCUGGCUAUUUCAACAGCUCGCAGUCAAG”: -0.24; “GGUCACGUCUCAAUCAACUCAUCGCCCAGGGAAAGCCCUGGUAAUUUCAACAGCUCGCAGUCAAG”: -0.248; “GGUCACGUCUCAAUCAACUCAACUUCAGGAGUUUCCUCCUGUAAACUCAACAGCUCGCAGUCAAG”: 0.0404.
As for “GGUCACGUCUCAAUCAACUCAGUCCCAGGAGUUUCCUCCUGUUAAUUCAACAGCUCGCAGUCAAG”, the binding signal (log2 fold change) was -0.266.
“GGUCACGUCUCAAUCAACUCUAUCCCAGGAGUUUUCUCCUGUUUACUCAACAGCUCGCAGUCAAG”: the binding signal (log2 fold change) turned out to be 0.11.
As for “GGUCACGUCUCAAUCAACUCUUCCCCCAGGGAAAUCCCUGGCUAUCUCAACAGCUCGCAGUCAAG”, the binding signal (log2 fold change) came to 0.019.
Next, “GGUCACGUCUCAAUCAACUCACAAGAGGGGGGGAAAACCCCUUUACCCUCAUAAUCAACAGCUCGCAGUCAAG”: 0.033.
As to “GGUCACGUCUCAAUCAACUCUUCUUCCAGGGAAACCCCUGGCAUAUUCAACAGCUCGCAGUCAAG”, the binding signal (log2 fold change) came out at 0.228.
For “GGUCACGUCUCAAUCAACUCUAUCUCAGGAGUUUCCUCCUGUAAAUUCAACAGCUCGCAGUCAAG”, the binding signal (log2 fold change) was found to be 0.0554.
As to “GGUCACGUCUCAAUCAACUCAUUUUCCAGGGAAAACCCUGGCAUAUUCAACAGCUCGCAGUCAAG”, the binding signal (log2 fold change) was -0.0195.
In the case of “GGUCACGUCUCAAUCAACUCAUCCUCAGGAGUUUUCUCCUGUUUACUCAACAGCUCGCAGUCAAG”, the binding signal (log2 fold change) is 0.252.
Turning to “GGUCACGUCUCAAUCAACUCAUCUUCAGGAGUUUGCUCCUGCAUUCUCAACAGCUCGCAGUCAAG”, the binding signal (log2 fold change) stood at 0.17.
In the case of “GGUCACGUCUCAAUCAACUCAAGUCCAGGAGUUUUCUCCUGUAAAUUCAACAGCUCGCAGUCAAG”, the binding signal (log2 fold change) came to 0.00976.
Next, “GGUCACGUCUCAAUCAACUCAUCCUCCAGGGAAAUCCCUGGCAAACUCAACAGCUCGCAGUCAAG”: 0.0379; “GGUCACGUCUCAAUCAACUCUUUUUCCAGGGAAACCCCUGGCAAUUUCAACAGCUCGCAGUCAAG”: -0.164.
As to “GGUCACGUCUCAAUCAACUCAUUCUCAGGAGUUUACUCCUGCUUUCUCAACAGCUCGCAGUCAAG”, the binding signal (log2 fold change) is -0.049.
As for “GGUCACGUCUCAAUCAACUCUACUCCCAGGGAAAGCCCUGGCUAACUCAACAGCUCGCAGUCAAG”, the binding signal (log2 fold change) was determined as 0.161.
Regarding “GGUCACGUCUCAAUCAACUCUUCUUCAGGAGUUUUCUCCUGCUAAUUCAACAGCUCGCAGUCAAG”, the binding signal (log2 fold change) is 0.0723.
For “GGUCACGUCUCAAUCAACUCAAUCUCCAGGGAAAUCCCUGGCUUUCUCAACAGCUCGCAGUCAAG”, the binding signal (log2 fold change) amounted to 0.229.
On to “GGUCACGUCUCAAUCAACUCUUCUUCCAGGGAAAACCCUGGUAUUCUCAACAGCUCGCAGUCAAG”, for which the binding signal (log2 fold change) is 0.102.
With “GGUCACGUCUCAAUCAACUCAUCUUCAGGAGUUUUCUCCUGUUAUUUCAACAGCUCGCAGUCAAG”, the binding signal (log2 fold change) came out at 0.247.
With “GGUCACGUCUCAAUCAACUCUUUUUCCAGGGAAAUCCCUGGUUUUCUCAACAGCUCGCAGUCAAG”, the binding signal (log2 fold change) is -0.161.
Consider “GGUCACGUCUCAAUCAACUCUAUUCCCAGGGAAAACCCUGGCUUUCUCAACAGCUCGCAGUCAAG”, for which the binding signal (log2 fold change) worked out at 0.0243.
“GGUCACGUCUCAAUCAACUCAUGUCCAGGAGUUUCCUCCUGUAAAUUCAACAGCUCGCAGUCAAG”: the binding signal (log2 fold change) is 0.0337.
With “GGUCACGUCUCAAUCAACUCCCUCGAGGGGGGGAAAACCCCUUUACCCUCUUAAUCAACAGCUCGCAGUCAAG”, the binding signal (log2 fold change) was -0.299.
Consider “GGUCACGUCUCAAUCAACUCAUUCUCCAGGGAAAACCCUGGUAAUCUCAACAGCUCGCAGUCAAG”, for which the binding signal (log2 fold change) is 0.147.
With “GGUCACGUCUCAAUCAACUCAGUCUCCAGGGAAAUCCCUGGUAUAUUCAACAGCUCGCAGUCAAG” the figure was -0.0147; with “GGUCACGUCUCAAUCAACUCAUUCUCAGGAGUUUACUCCUGCUAUCUCAACAGCUCGCAGUCAAG”, 0.26; with “GGUCACGUCUCAAUCAACUCUUCCCCCAGGGAAAACCCUGGCUAUGUCAACAGCUCGCAGUCAAG”, 0.193.
In the case of “GGUCACGUCUCAAUCAACUCUUUCUCCAGGGAAACCCCUGGCAAAUUCAACAGCUCGCAGUCAAG”, the binding signal (log2 fold change) was -0.0165.
Next, “GGUCACGUCUCAAUCAACUCUAUAGAGGGGGGGAAAACCCCUUUACCCUCCAUCUCAACAGCUCGCAGUCAAG”: -0.206; “GGUCACGUCUCAAUCAACUCCUAAGAGGGGGGGAAAACCCCUUUGCCCUCGUAAUCAACAGCUCGCAGUCAAG”: -0.0596.
Turning to “GGUCACGUCUCAAUCAACUCUUUUCCCAGGGAAACCCCUGGCAAUGUCAACAGCUCGCAGUCAAG”, the binding signal (log2 fold change) is 0.116.
As for “GGUCACGUCUCAAUCAACUCAUUCCCAGGAGUUUUCUCCUGCAUACUCAACAGCUCGCAGUCAAG”, the binding signal (log2 fold change) amounted to 0.168.
Take “GGUCACGUCUCAAUCAACUCAUUCCCAGGAGUUUUCUCCUGCAAAUUCAACAGCUCGCAGUCAAG”: the binding signal (log2 fold change) is -0.0613.
With “GGUCACGUCUCAAUCAACUCAUUUUCCAGGGAAAACCCUGGUAUUCUCAACAGCUCGCAGUCAAG” the figure was 0.193; with “GGUCACGUCUCAAUCAACUCUUCCUCCAGGGAAAGCCCUGGCAUAUUCAACAGCUCGCAGUCAAG”, 0.127.
With “GGUCACGUCUCAAUCAACUCUAAAGAGGGGGGGAAAACCCCUUUGCCCUCAUAUUCAACAGCUCGCAGUCAAG” the figure was -0.206; with “GGUCACGUCUCAAUCAACUCGUUUUCAGGAGUUUACUCCUGCAUUUUCAACAGCUCGCAGUCAAG”, 0.0292.
Next, “GGUCACGUCUCAAUCAACUCAGUCUCCAGGGAAACCCCUGGCUAUCUCAACAGCUCGCAGUCAAG”: 0.207; “GGUCACGUCUCAAUCAACUCUACGCCAGGAGUUUUCUCCUGUAUUUUCAACAGCUCGCAGUCAAG”: -0.0223.
For “GGUCACGUCUCAAUCAACUCUAUCGAGGGGGGGAAAACCCCUUUACCCUCACUUUCAACAGCUCGCAGUCAAG”, the binding signal (log2 fold change) was -0.306.
Consider “GGUCACGUCUCAAUCAACUCUAUCUCCAGGGAAAUCCCUGGCUUUCUCAACAGCUCGCAGUCAAG”, for which the binding signal (log2 fold change) was -0.0107.
In the case of “GGUCACGUCUCAAUCAACUCAACUUCCAGGGAAAACCCUGGUUUAUUCAACAGCUCGCAGUCAAG”, the binding signal (log2 fold change) was -0.032.
